Source: paper PMC12136788
Some of the results follow.

B1: chr9:53392976:53392977:-_ENSMUSG00000032047_ENSMUST00000034547|mus_mus|FALSE|FALSE (ssRNA)
RNA: GGGAGUUCUACAGUCCGACGAUCUUUCAGUCCUGCAUAUUUAAGAACCUUAGGUACGGCAUAUGCAGGCGCAAGUGGAAAAUCAAUGGGGUCUACGGCAGCAUCAGCAAAUGCUGCAAUUCGUGCCAAUGGCUUAACAUUGAGCAACAGAGGAUUGAGCAUCA
B2: chr1:196632501:196632502:+_ENSMUSG00000026640_ENSMUST00000027952|mus_mus|FALSE|FALSE (ssRNA)
RNA: GGGAGUUCUACAGUCCGACGAUCGACCCGGGACCGGAGGCUGUCUGGGCUGCCUGUGUACCUGAAGGAAGAGUCAUAUCUGCUAAUGGAUGUCCGAGAGAUGCUGGCAGAGGCAGGGAUGUUGUAGGAGGAGGUCUGCUUAGGCAACAGAGGAUUGAGCAUCA
B3: chr2:198351390:198351391:-_ENSG00000144381_ENST00000345042|hu_hu|hu_hu_hu_mus_False|18_18 (ssRNA)
RNA: GGGAGUUCUACAGUCCGACGAUCUCAUUCCCACCCUCCACAGAAAGGCUGCUUCUGAACUCUCAUGUGGUGACACAGCGCUACAGUCCUGAUGCUCACAGAACAGUAGAGAUGCCUCCUCAGUGAUAGUUGAAAGCAGGACACCAACAGAGGAUUGAGCAUCA
B4: 31195606_31195726_1390_CDS_ENSMUSG00000029165_ENSMUST00000031057|mouse|control|control (ssRNA)
RNA: GGGAGUUCUACAGUCCGACGAUCGGUGUCAGGGGCUGGCUCCUCGAGUUCAGGAAUUGGCUGUGGCAUAAGCCACACAGGGUCAGUCUUCUCUUCUGCUGGCUCUGUCUCAGGCCAAGUCGCAGGGUUUUCCCCAUCAGGUGACAACAGAGGAUUGAGCAUCA
B5: 2235841_2235961_1716_CDS_ENSG00000157933_ENST00000378536|human|control|control (ssRNA)
RNA: GGGAGUUCUACAGUCCGACGAUCCUUGACCACCUCAUGCAGGAACUUCUCUUUGGCUUCCUUGGUGUCCAGGCCGCCCUCCAGUGCCUGCCGCAGGUGCUCCAGCUCCGCCUCCAGCCCACUGGGGGCGUCGGCAGGGGCCGCCAACAGAGGAUUGAGCAUCA
B6: chr12:16947260:16947261:+_ENSMUSG00000020580_ENSMUST00000020904|mus_mus|motif|central (ssRNA)
RNA: GGGAGUUCUACAGUCCGACGAUCAAUAUCUCUUUCUUCCCAGAAAAAAGCAGAAUCUGAUCUUUUUAUCAUUUCAAAUUUACGGAGAAGCUUCAUUGCAUAAACCUUCUGUGAUGCCUUAUGACGAACCAACUGAACUUCACCCAACAGAGGAUUGAGCAUCA
B7: chr4:141302222:141302223:+_ENSG00000153130_ENST00000394201|hu_hu|motif|central (ssRNA)
RNA: GGGAGUUCUACAGUCCGACGAUCUCUUUUGCUUUUUGUGUCAGUUGUUUGAAAAACACUAGAAGCUGACAUGAGAUUUUCGGUAUAUUGUCCAAGAACUUGGUUUUCUGAUUUUAGCUUCAGAUUUUCUUCCUUAACUGCAUCCAACAGAGGAUUGAGCAUCA
B8: chr1:163112212:163112213:-_ENSG00000143248_ENST00000313961|hu_hu|hu_hu_hu_mus_False|18_58 (ssRNA)
RNA: GGGAGUUCUACAGUCCGACGAUCUUUUAUUAUCAGUAAGAGUGAGUUACAUACUAGGCAAAGUAUUGGAUACAAUAUUCUAAAGAUAAACACUAUUGGUCCAGAAUUUAAAACUUUUGGGAUAAAUUGCUGGCACAGGACUUACAACAGAGGAUUGAGCAUCA
B9: chr6:11583160:11583161:+_ENSG00000205269_ENST00000379426|hu_hu|FALSE|FALSE (ssRNA)
RNA: GGGAGUUCUACAGUCCGACGAUCAAAAUCAAUAAUAUACAAUAUUUACAGCUUGUUAGGUAUUAUAUAUAAACAUAGUUUUUAAAAUAAUCCUUCAAAAUUAAACUGUUUUAUGUAAACAUGCAGUACACAUACUCAUAUAGUCAACAGAGGAUUGAGCAUCA
B10: 91397733_91399226_862_CDS_ENSMUSG00000040549_ENSMUST00000099716|mouse|control|control (ssRNA)
RNA: GGGAGUUCUACAGUCCGACGAUCCUCUUGCCAUUUCUUUGCCUCAAUUUUGUCAUAAAAGUCUUUGGGAAGUUUGGAAAGGAUCUCUACCGCAUCCAGAAGCUCAUAAGCAUCUACCUGUGGUACCUCAUCACCAUCAUCACCCAACAGAGGAUUGAGCAUCA
B11: 42638108_42638228_1226_CDS_ENSMUSG00000025184_ENSMUST00000026188|mouse|control|control (ssRNA)
RNA: GGGAGUUCUACAGUCCGACGAUCUUCAGUUACAGGGUCACAAGCUGUACCUGCAAUGUCCACCAUACAAGCCUUGCUGGUACUGUCACAUACAUUCCUAAAUCCAUCAUCUGUGUCUAUUUCAUGCACGAGGACCGCUGUAUCCAACAGAGGAUUGAGCAUCA
B12: chr7:92085846:92085847:+_ENSG00000157259_ENST00000287957|hu_mus|motif|central (ssRNA)
RNA: GGGAGUUCUACAGUCCGACGAUCGUUAAAACUGAGGCUUUAUACCUGCGAAGUAAGUAUGUCCCAGGUUUGGUUUUGUAACGGCAAGUGGUUGGCAACUGUUUCCUUAAUAGUUAUCGCAGGAGUAGGUCCAACGUGAGUCCACAACAGAGGAUUGAGCAUCA
B13: 212502490_212502610_829_CDS_ENSG00000066027_ENST00000261461|human|control|control (ssRNA)
RNA: GGGAGUUCUACAGUCCGACGAUCAACCAGUUCAUUCAGUGUUGCUCUUUUAAUUUCUUUGCUCUUCAAGUCUGAAACAGAGUCCAUGAAAUCAAACAGUAUACAACACUGCUGCAACUUCUGACAGAAAAGCUCUUGUUGUUCCAACAGAGGAUUGAGCAUCA
B14: chr14:73742652:73742653:-_ENSG00000133961_ENST00000557597|hu_mus|motif|central (ssRNA)
RNA: GGGAGUUCUACAGUCCGACGAUCCUAACCCGCUCACUUUUGGCAAGAUUACUUACAACUCAUACUUUUUAAUAUUGAGAACGGUUUAAAAUAUUCUAGGUGCAUAAAAAUAAAGAUUUUGGCUUUUUGAUAUAUAUAUAUAUACAACAGAGGAUUGAGCAUCA

molecular target: T1, UNK ZnF1-3 (human, UniProt Q9C0B0 31-174); experiment: nsRBNS (natural sequence RNA bind-n-seq); RBNS binding buffer (assumed for nsRBNS): 25 mM Tris pH 7.5, 150 mM KCl, 3 mM MgCl2, 0.01% Triton X-100, 500 ug/ml BSA, 20 U/ml SUPERase-In, 4 C; UNK is unkempt and MSI1 is Musashi-1; names of the RNAs are library labels; protein concentration not given here; high values mean tight binding
T1 sequence: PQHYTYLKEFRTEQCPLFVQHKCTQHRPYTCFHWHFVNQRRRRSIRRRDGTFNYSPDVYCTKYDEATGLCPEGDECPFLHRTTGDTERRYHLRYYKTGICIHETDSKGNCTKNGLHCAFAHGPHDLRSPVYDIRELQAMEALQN

Going from B1 to B2, the binding signal rises from 0.688 enrichment R to 1.94 enrichment R.

Compared with B3, B4 is lower in binding signal: 1.18 enrichment R for the first, 0.745 enrichment R for the second.

Compared with B5, B6 is higher in binding signal: 0.629 enrichment R for the first, 1.01 enrichment R for the second.

First: B7
Second: B8
The binding signal of the first is lower: 0.282 enrichment R for the first, 1.26 enrichment R for the second.

Going from B9 to B10, the binding signal rises from 0.432 enrichment R to 1.24 enrichment R.

Going from B11 to B12, the binding signal rises from 0.684 enrichment R to 1.08 enrichment R.

Going from B13 to B14, the binding signal rises from 0.437 enrichment R to 3.22 enrichment R.
